Experimental findings from patent US10273468B2 (priority 2016, dated 2019) are described below.

≈ marks a conversion by molar mass, not a printed value. Where two headings read alike, the source gives them in different places.

Experiment in all cases: microbe, parasite or virus in culture
Test [1] relates to E. coli empty vector. The following applies: Escherichia coli.
The subject of test [2] is E. coli expressing tet(51). The following applies: Escherichia coli.
In test [3] the test system is E. coli expressing tet(X). The following applies: Escherichia coli.
The test system of test [4] is E. coli expressing tet(55). The following applies: Escherichia coli.
Test [5] has as its system E. coli expressing tet(56). The note with it: Escherichia coli.
The test system of test [6] is E. coli expressing tet(50). The following applies: Escherichia coli.
For test [7], the system named is E. coli expressing tet(56). The following applies: Escherichia coli, read-out: IC50 (growth, liquid culture), E. coli expressing tet(56).

For `CN(C)[C@@H]1C(O)=C(C(N)=O)C(=O)[C@@]2(O)C(O)=C3C(=O)c4c(O)ccc(Cl)c4[C@@](C)(O)[C@H]3C[C@@H]12` [chlortetracycline], the MIC in test [1] was 16 µg/mL (≈ 33.4 µM); in test [2], 512 µg/mL (≈ 1070 µM); in test [3], 256 µg/mL (≈ 535 µM); in test [4], 256 µg/mL (≈ 535 µM); in test [5], 512 µg/mL (≈ 1070 µM); in test [6], 256 µg/mL (≈ 535 µM).

The term IC50 denotes the point on the concentration scale where inhibition reaches its midpoint. `CN(C)[C@@H]1C(O)=C(C(N)=O)C(=O)[C@@]2(O)C(O)=C3C(=O)c4c(O)cccc4[C@@](C)(O)[C@H]3C[C@@H]12` [tetracycline]: the results for the IC50 in test [7] (tetracycline with two μg/mL anhydrotetracycline) and in test [7] (tetracycline without anhydrotetracycline) were 8.27 µg/mL (≈ 18.6 µM) and 47.4 µg/mL (≈ 107 µM), respectively.
